The supplement of paper PMC11417369
± gives the standard deviation of the averaged measurements. The list shows a part of the results.

These sequences were tested on PfAP2-I AP2 domain 3 (GST-tagged) (assay: gcPBM binding intensity (ln(normalized median fluorescence intensity)); higher = stronger DNA binding).
Summary of the method: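 Binding intensity values are the highest Masliner-normalised natural-log median intensity among replicate spots of either probe orientation. The binding step lasted 1 h in 1× PBS with 1% milk, 0.2 mg/ml BSA, 0.5% salmon testes DNA and 0.03% Triton X-100, using GST-tagged P. falciparum DNA-binding domains expressed in E. coli on an Agilent 4 × 180k array of primer-extended double-stranded 36-bp intergenic genomic probes plus negative controls. Alexa488 anti-GST antibody and a 488 nm scan detected bound protein.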

Sequence	gcPBM binding intensity (ln)
TAAAAGAAAAATTAGTGTACCAATATTAACATAAAA [XGTACX_site5474]	7.63 ± 0.49
ATATATTTTTAATTACGTACTTAATAATATATACAA [XGTACX_site3285]	7.92 ± 0.26
ATATCAACTGAATTGTATAGGCGATAAAAGAAAAAA [CACACA_negctrl_site1334]	7.62 ± 0.86
ATATAAATATATGTATGTACACATTTTTTTTTTTTT [XGTACX_site247]	7.825 ± 0.021
AGAATTATAAATTATAGTACATAAAATTTTGATGTA [XGTACX_site5726]	7.52 ± 0.4
TTTATACATACATTCGTGCACATACGTATAACATAT	11.2 ± 0.19
AAACGATCTCGATGTTGTACACATTTATATAGAAAC [XGTACX_site4373]	8.34 ± 0.22
CATGTGTGTATAATTTGTACATATACATAATAAATA [XGTACX_site2418]	7.93 ± 0.33
CTAAACTAAACAAACTGTACACAAATAAAACAATAA [XGTACX_site8880]	7.99 ± 0.37
TACTAAAATATATATATGCAACATGAGATATTCAAC [XGTACX_negctrl_site283]	8.13 ± 0.51
GTTGTCCCCCTTTCTATGCACACTTTAAATTATTCA [CACACA_site52]	9.98 ± 0.23
AATTTATAAGAATATTGTACGTTTAATATATTGTAA [XGTACX_site7553]	7.7 ± 0.47
ATTCTAATAGATAGTAGTACCTATAAGTTTTCTTTT [XGTACX_site2315]	7.59 ± 0.46
AAGTTTATTATATATAAATTATTATATATATATATA [CACACA_negctrl_site189]	9.31 ± 0.57
AAAATAATAATTAAATAATAGTAAATGAAAAATAAA [CACACA_negctrl_site57]	8.19 ± 0.29
TATGTGTTCAGTATTGCACACACACTCCAAAATAAA [CACACA_site8018]	9.86 ± 0.59
ACTTCATTTTATAAGTGTACATAATTTGTTTATATA [XGTACX_site5453]	7.96 ± 0.49
ATAAATACTAGGCACACACACATATAGATTTATATA [CACACA_site7064]	8.24 ± 0.59
TATTATTTACTTATTGCACACATATAAAATATATTT [CACACA_site9017]	10.6 ± 0.49

Sequence	gcPBM binding intensity (ln)
TCACACACTCTCAAAAGTACAAGAAGATTATGAAGA [XGTACX_site4748]	7.83 ± 0.64
ATCTATCATATTTATGCACACAAAAATAATTAATTC [CACACA_site8837]	9.775 ± 0.035
ATGAACTAAACTAATCGTACAATAAGTTTTATTATA [XGTACX_site4891]	7.5 ± 0.53
AAAAAAATATATAAATGTACATATTGTTTAATTAAT [XGTACX_site3794]	7.82 ± 0.43
TTCAACGTTTTGGAATGTACAGAAAGGTATCCATCA [XGTACX_site179]	7.75 ± 0.57
GAAATATAATTTATTACACACATTTTAAAAAAATTC [CACACA_site1087]	7.74 ± 0.18
AAAAAAAAAAAAAAAAAAAAAAAAAAAAAATATGTG [GTGCAC_negctrl_site657]	9.9 ± 0.26
TAAAAGATAAAATATGCATGTGTAATTTTTTTTTTT [TGCATGCA_site955]	7.58 ± 0.49
TTTATAACATTTAAGAGTACAAAAAAATAAATAAAT [XGTACX_site1264]	7.96 ± 0.53
TAATTTATTACCATGTAATTATTACGAATATAGGAT [CACACA_negctrl_site694]	7.76 ± 0.41
AAAAAATTATTAATTTGTACATAAATAACCAAAAAA [XGTACX_site2488]	7.64 ± 0.63
TATATATTAAAATAATCACACACATCAATTAATGGT [CACACA_site8331]	7.64 ± 0.45
TTAAATATAATTATATGTACATATTTATGTATATAT [XGTACX_site5811]	7.74 ± 0.13
AGATTGTATTTATGTACACACATTTTTGGAATATGA [CACACA_site1340]	7.83 ± 0.54
TTGATTAAAATTAGTACACACAAAATACATGCGGGG [CACACA_site5284]	8.73 ± 0.13
ATATTATAATGTTTTTACGAATTCGCAAATTATTAT [GTGCAC_negctrl_site470]	7.53 ± 0.64
TTTTTTTTTTTTTTTTTTTTTTTTTTATGATATATA [GTGCAC_negctrl_site365]	8.21 ± 0.8
AATTTACAAAAAAGAAAAAAAAAAAAAAAGATACTT [CACACA_negctrl_site1434]	7.33 ± 0.73
ATATGCACTCATTGTGCACACGCATATTACGAAAAG [CACACA_site2637]	11 ± 0.35

Sequence	gcPBM binding intensity (ln)
TTAATTATCCATTTTGCACACATTTTAAAACATGAA [CACACA_site189]	9.755 ± 0.078
AAAAAAAAAAAAAACACACACACAAATACAAATGGT [CACACA_site1721]	8.27 ± 0.4
TTTCTTATTTTGGATTGTACGTATATTTTTCATTTT [XGTACX_site224]	8.12 ± 0.3
TATAATAATAATTATACATGCATGAATATTTATATG [TGCATGCA_site811]	7.67 ± 0.21
TCCTATATATAAATATTAATATATATGTATTGGTAT [GTGCAC_negctrl_site23]	7.57 ± 0.51
AACAAAAAAAAAAAAAAAAAAAAAAAAAAAAAAATG [CACACA_negctrl_site1127]	7.83 ± 0.49
ATGGACAAGTTAAACGCACACAAATATATACACCCA [CACACA_site8478]	8.91 ± 0.27
AATAAAAAAAATAGCATACACACATATATACATATA [CACACA_site659]	7.46 ± 0.5
TTACACATGAGAAAATGTACATATAATAAAATATGT [XGTACX_site904]	7.74 ± 0.51
TTATATTTCAATCATATTGTCACAAGTCATATTTAT [GTGCAC_negctrl_site366]	7.48 ± 0.54
TATATATATATGTGCGTGCACGTTACCTTGCTGTTT	10.3 ± 0.61
AAATTTAACAACTTCAAACACACAATATATATATAT [CACACA_site2092]	9.1 ± 0.35
TTTCCAAATACAACTACACACAAACAAAAGTTATAT [CACACA_site6544]	7.72 ± 0.62
TCCATATTTGTTCACACACACACATATTTATATATA [CACACA_site3570]	8.04 ± 0.53
ATTAAATGTTATATTTGTACATATTATATATATATA [XGTACX_site5095]	9.01 ± 0.44
TTCATTTTTTATTATAGTACACATAATATTTGCAGA [XGTACX_site4032]	8.1 ± 0.23
TTTGTTATTTTTTATTGTACTTTTTTTCTTTCATAA [XGTACX_site4302]	8.13 ± 0.52
TTTTTTAAATGTATTAAAATTATATATATATATATA [GTGCAC_negctrl_site570]	9.49 ± 0.47
